Here are results for 86 compounds from PMC4336329 (PLoS ONE, 2015).

The whole screen tested about 310,000 compounds, of which about 2,200 (0.71%) showed an effect of 50% or more. Effects have a minus sign here. Some of the results follow.

This assay deals with human ether-à-go-go-related gene (hERG) potassium channel (human, UniProt Q12809). The assay is described as follows: primary screen, population patch clamp on CHO cells stably expressing hERG.
Sequence of human ether-à-go-go-related gene (hERG) potassium channel (Q12809 whole entry, looked up): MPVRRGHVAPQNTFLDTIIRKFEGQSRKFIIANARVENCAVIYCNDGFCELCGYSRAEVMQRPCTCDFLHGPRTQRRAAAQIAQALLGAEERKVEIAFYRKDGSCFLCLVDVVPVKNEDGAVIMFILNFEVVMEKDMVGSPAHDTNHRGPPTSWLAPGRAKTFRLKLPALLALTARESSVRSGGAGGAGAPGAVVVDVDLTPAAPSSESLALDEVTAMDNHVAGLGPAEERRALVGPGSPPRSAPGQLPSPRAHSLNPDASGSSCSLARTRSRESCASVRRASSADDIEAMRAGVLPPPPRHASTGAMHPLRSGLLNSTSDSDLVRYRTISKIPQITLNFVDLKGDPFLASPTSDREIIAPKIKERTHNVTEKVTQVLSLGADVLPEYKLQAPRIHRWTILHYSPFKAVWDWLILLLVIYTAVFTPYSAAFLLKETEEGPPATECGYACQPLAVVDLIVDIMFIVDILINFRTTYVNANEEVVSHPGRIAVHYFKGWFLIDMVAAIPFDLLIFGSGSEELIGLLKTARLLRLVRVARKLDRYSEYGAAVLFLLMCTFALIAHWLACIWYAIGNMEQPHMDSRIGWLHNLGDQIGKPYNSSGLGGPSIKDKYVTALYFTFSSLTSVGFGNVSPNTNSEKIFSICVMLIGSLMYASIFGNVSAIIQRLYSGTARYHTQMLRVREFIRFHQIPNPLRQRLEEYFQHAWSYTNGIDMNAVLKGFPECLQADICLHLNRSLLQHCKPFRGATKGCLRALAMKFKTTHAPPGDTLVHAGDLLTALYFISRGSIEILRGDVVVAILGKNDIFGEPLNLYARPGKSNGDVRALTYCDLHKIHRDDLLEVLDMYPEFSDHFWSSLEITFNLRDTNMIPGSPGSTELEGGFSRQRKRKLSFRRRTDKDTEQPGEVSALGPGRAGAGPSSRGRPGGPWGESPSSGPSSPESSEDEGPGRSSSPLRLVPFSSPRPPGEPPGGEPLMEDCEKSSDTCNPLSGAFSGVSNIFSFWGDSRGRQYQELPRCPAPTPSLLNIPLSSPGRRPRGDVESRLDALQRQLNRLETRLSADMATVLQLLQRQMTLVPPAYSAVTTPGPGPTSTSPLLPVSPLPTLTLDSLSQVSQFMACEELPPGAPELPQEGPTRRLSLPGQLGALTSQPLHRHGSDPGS
In the case of `CCOc1ccc(CC(=O)N/N=C(\C)c2cccnc2)cc1`, the “hERG current change (%, negative = inhibition) at 1uM” value is 12.1%.

In the case of `CCC1ON(C(C)C)C2c3nc4ccccc4n3CC12` (centres unmarked), the “hERG current change (%, negative = inhibition) at 1uM” value is 16.1%. The figure for `Nc1cc(=O)[nH]c(SCC(=O)Nc2cc(Cl)cc(Cl)c2)n1` is 12.8%; for `Cc1cccc(NC(=O)c2ccc3c(c2)OCCO3)n1` it is 8.09%.

As for `CCC(=NC1CC(C)(C)NC(C)(C)C1)C1=C(O)CC(C)(C)CC1=O`, the “hERG current change (%, negative = inhibition) at 1uM” value came out at 14.8%. The figure for `COc1ccc(-c2cc3cc(C(=O)[O-])ccn3c2C(=O)c2ccccc2)cc1.O` is 18.3%; for `CCOc1ccc(S(=O)(=O)N(CC(=O)N2CCc3ccccc32)Cc2ccco2)cc1` it is 6.76%; for `CSc1ccccc1C(=O)Nc1ccc(S(=O)(=O)NC2=NCCCCC2)cc1` it is 9.56%. The figure for `CCn1c(SCC(=O)N2CCCC2)nnc1-c1ccco1` is 10.4%; for `O=C(O)CCS(=O)(=O)c1ccccc1Cl` it is 16.4%; for `O=C(CCNc1n[nH]c(=O)[nH]c1=O)N/N=C/c1ccc(Cl)cc1` it is 15%. `CC(C)c1cc(C(=O)Nc2cccc(Cl)c2)no1`: the “hERG current change (%, negative = inhibition) at 1uM” value was determined as 6.75%. To `CNS(=O)(=O)c1ccc(N=Cc2c(O)n(-c3ccc(C)cc3)c(=O)[nH]c2=O)cc1` belongs 10.8%; to `Cc1cc(S(=O)(=O)NCc2ccccc2)ccc1OCC(=O)N1CCN(C)CC1`, 15.5%. Consider `N=c1c(-c2nc3ccccc3[nH]2)cc(C(=O)c2ccco2)nn1-c1ccccc1`, for which the “hERG current change (%, negative = inhibition) at 1uM” value is listed as -29.5%. On to `CS(=O)(=O)N1CCCC(C(=O)N2CCN(c3cccc(Cl)c3)CC2)C1` (centres unmarked), for which the “hERG current change (%, negative = inhibition) at 1uM” value is recorded as 7.48%. To `COc1ccccc1NC(=O)c1ccc([N+](=O)[O-])cc1[N+](=O)[O-]` belongs 1.46%; to `C/C(=N/NC(=O)c1ccc(-c2ccccc2)cc1)c1cc(O)cc(O)c1`, 10.5%; to `Cc1cc(SCc2ccc(Cl)cc2Cl)nc(=O)[nH]1`, 3.58%. For `Cc1nc2ccccc2n1CC(O)COc1ccccc1Cl` (centres unmarked), the “hERG current change (%, negative = inhibition) at 1uM” value is 7.5%.

Turning to `CN1CC(=O)N2C(c3cccc([N+](=O)[O-])c3)c3[nH]c4ccccc4c3C[C@H]2C1=O` (some centres unmarked), the “hERG current change (%, negative = inhibition) at 1uM” value is listed as 19.2%. Consider `CN1CCN(CCCNC(=O)c2ccc3c(c2)N(Cc2ccc(F)cc2)CCS3)CC1`, for which the “hERG current change (%, negative = inhibition) at 1uM” value turned out to be 13.2%.

Consider `O=C(c1nc2ccccc2s1)N1CCSCC1`, for which the “hERG current change (%, negative = inhibition) at 1uM” value came to 11.6%. As to `CCCCn1c(N)c(N(CCOC)C(=O)c2cc(Cl)nc3ccccc23)c(=O)[nH]c1=O`, the “hERG current change (%, negative = inhibition) at 1uM” value amounted to 9.65%. The figure for `O=C(O)c1ccc(C(=O)O)c(C(=O)c2ccccc2)c1` is 7.13%; for `COc1cccc(C(NC(=O)c2ccccc2F)NC(=O)c2ccccc2F)c1` it is -0.0196%; for `COCCn1c(C)nc2oc3ccc(Br)cc3c(=O)c2c1=O` it is -14.5%. The figure for `Br.CCCn1c(=N)n(CC(=O)OCC)c2ccccc21` is 13.4%; for `COCCN1CCc2c(C)nc3c(-c4ccc(OC)c(OC)c4)cnn3c21` it is 1.67%; for `N#CCSc1nnc(-c2c[nH]c3ccccc23)o1` it is 10.9%. In the case of `C=CCNC(=O)CCCOc1cccc(C)c1`, the “hERG current change (%, negative = inhibition) at 1uM” value is listed as 14%.

Take `CCCn1c(SCC(=O)N2CCCc3ccccc32)nnc1-c1ccco1`: the “hERG current change (%, negative = inhibition) at 1uM” value amounted to 3.19%. Consider `CS(=O)(=O)c1ccc2nc(NC(=O)c3cc([N+](=O)[O-])cc([N+](=O)[O-])c3)sc2c1`, for which the “hERG current change (%, negative = inhibition) at 1uM” value is listed as 13.5%. The figure for `CN(CCC(=O)Nc1ccc(Br)cc1)Cc1ccccc1` is -9.25%; for `CN(CC(=O)Nc1cccc(F)c1)CC(=O)Nc1cccc(S(N)(=O)=O)c1` it is 5.95%. To `COc1ccccc1/C=N/NC(=O)C1=NNC(c2ccccc2)(c2ccccc2)C1` belongs 9.85%; to `CCN(CC)CCSc1nnc2c3ccccc3n(CCc3ccccc3)c2n1`, -18.1%; to `COc1ccc(CCN2CCCn3c2nc2c3c(=O)[nH]c(=O)n2C)cc1OC`, 6.45%. In the case of `CSCC[C@H](NS(=O)(=O)c1ccc(C)cc1)C(=O)N1CCC(C(=O)N[C@H](C(=O)O)c2ccccc2)CC1`, the “hERG current change (%, negative = inhibition) at 1uM” value is recorded as 2.19%. The figure for `CC(C)(C)NC(=O)NC(=O)CN1c2cccc3cccc(c23)S1(=O)=O` is 16.2%; for `Cc1ccccc1NC(=O)NC1(C(=O)N2CCC(C(N)=O)CC2)CCCCC1` it is 10.2%. The figure for `Cc1ccc(NC(=O)Cn2ncc3c([nH]c4ccccc43)c2=O)cc1Cl` is 22.3%. As to `CC1(C)C(=O)Nc2ccccc2N1C(=O)COC(=O)CCSc1ccccc1`, the “hERG current change (%, negative = inhibition) at 1uM” value was -11.4%. The figure for `Cc1ccccc1-n1ncc2c([N+](=O)[O-])cc([N+](=O)[O-])cc21` is 7.78%; for `COC(CNC(=O)C(=O)Nc1cc2c3c(c1)CCN3C(=O)CC2)OC` it is 33.5%; for `CCOC(=O)c1cc2c(=O)n3ccccc3nc2n(Cc2ccco2)c1=NC(=O)c1ccccc1OCC` it is -7.63%.

On to `CCOc1ccc(N(CC(=O)NC2CCCC(C)C2C)S(=O)(=O)c2c(C)noc2C)cc1` (centres unmarked), for which the “hERG current change (%, negative = inhibition) at 1uM” value was 1.42%. With `COc1cccc2sc(N(CCN(C)C)C(=O)c3ccc(S(=O)(=O)N4CCCC4)cc3)nc12.Cl`, the “hERG current change (%, negative = inhibition) at 1uM” value is listed as -5.02%. Turning to `N#C/C(=C/c1cccn1-c1cccc(C(=O)O)c1)c1ccc(Cl)cc1`, the “hERG current change (%, negative = inhibition) at 1uM” value came to 14.4%. Regarding `CCOC(=O)c1sc(NC(=O)c2cc(S(=O)(=O)N3CCOCC3)ccc2C)nc1C`, the “hERG current change (%, negative = inhibition) at 1uM” value was 0.945%. The figure for `COc1ccc(Nc2nc(N)nc(CSC(=S)N3CCN(C)CC3)n2)cc1` is 4.03%; for `O=C(CO/N=C/c1cccc([N+](=O)[O-])c1)Nc1ccc2ccccc2c1` it is 9.73%.

Take `COc1cccc(C(C2C(=O)CC(C)(C)CC2=O)C2C(=O)CC(C)(C)CC2=O)c1`: the “hERG current change (%, negative = inhibition) at 1uM” value was determined as 17.8%. To `Cc1ccccc1C(=O)Nc1ccnn1C1CCN(Cc2cccnc2)CC1` belongs -48.9%.

In the case of `COc1cccc(-c2n[nH]c(=S)n2Cc2ccco2)c1OC`, the “hERG current change (%, negative = inhibition) at 1uM” value worked out at 8.67%.

With `COC(c1ccccc1)c1nnc(CCC(=O)NCCC(C)C)o1` (centres unmarked), the “hERG current change (%, negative = inhibition) at 1uM” value came out at 13.7%. To `Cc1ccc(S(=O)(=O)NN2C(=O)/C(=C/c3ccc(C(=O)O)cc3)SC2=S)cc1` belongs 16.6%; to `CCOc1ccc(C2=C/C(=C/c3cccnc3)C(=O)O2)cc1`, 3.66%; to `CSc1cccc(NC(=O)C2CCCN2S(=O)(=O)c2ccc(Br)s2)c1` (centres unmarked), 15%. For `Cc1ccc(CNC(=O)C(=O)NCC2OCCN2S(=O)(=O)c2cccs2)cc1` (centres unmarked), the “hERG current change (%, negative = inhibition) at 1uM” value is on record as 8.55%. As for `COc1cc(OC)c(OC)cc1/C=C1\SC(N2CCCCC2)=NC1=O`, the “hERG current change (%, negative = inhibition) at 1uM” value came out at 16.5%. Take `COc1ccccc1NC(=O)c1ccccc1C(=O)O`: the “hERG current change (%, negative = inhibition) at 1uM” value is on record as 16.9%.

On to `COC(=O)C1=C(C)Nc2nc(-c3ccccc3)nn2C1c1ccc(C)o1` (centres unmarked), for which the “hERG current change (%, negative = inhibition) at 1uM” value is -0.721%.

Consider `Cc1ccnc(NC(c2ccncc2)c2c(C)[nH]c3ccccc23)c1` (centres unmarked), for which the “hERG current change (%, negative = inhibition) at 1uM” value amounted to 7.78%.

Take `O=C(CN1CCN(c2ccccc2)CC1)Nc1scc2c1c(=O)oc1ccccc12`: the “hERG current change (%, negative = inhibition) at 1uM” value is recorded as 13.2%.

Take `c1ccc(CCNc2nc3ccccc3n3nnnc23)cc1`: the “hERG current change (%, negative = inhibition) at 1uM” value was found to be 6.12%. To `CCOC(=O)c1ccc(Cn2cnc3ccccc3c2=O)cc1` belongs 6.92%; to `COc1cc(OC)c(S(=O)(=O)Nc2ccc(C(=O)O)cc2)cc1S(=O)(=O)Nc1ccc(C(=O)O)cc1`, 11.9%; to `COc1ccc(C)cc1N(CC(=O)NCCSCc1ccco1)S(=O)(=O)c1ccc(C)cc1`, 11.2%. The figure for `Nc1cncc(C(=O)O)c1` [24817409] is 14.4%.

Turning to `C=CCc1c(OC(C)=O)c2ccccc2n(C)c1=O`, the “hERG current change (%, negative = inhibition) at 1uM” value is on record as 12.1%.

Take `CC(C)N(C)C1CCN(C(=O)Nc2ccc(Cl)c(Cl)c2)CC1`: the “hERG current change (%, negative = inhibition) at 1uM” value is -19.5%.

For `Cc1ccc(-n2nc(C(=O)N3CCN(C)CC3)c3c4ccccc4n(C)c3c2=O)cc1`, the “hERG current change (%, negative = inhibition) at 1uM” value came to 7.7%.

With `COC(=O)Cc1c(O)ccn(CCc2ccc(OC)c(OC)c2)c1=O`, the “hERG current change (%, negative = inhibition) at 1uM” value stood at 6.44%.

With `COc1ccccc1CN1CCN(C(=O)COc2cccc(C)c2)CC1.O=C(O)C(=O)O`, the “hERG current change (%, negative = inhibition) at 1uM” value is 5.35%. Regarding `CN(C(=O)COC(=O)C1COc2ccccc2O1)C1(C#N)CCCCC1` (centres unmarked), the “hERG current change (%, negative = inhibition) at 1uM” value is 6.44%.

Regarding `O=C(NC(=S)Nc1ccccc1N1CCCCC1)c1ccc(F)cc1Cl`, the “hERG current change (%, negative = inhibition) at 1uM” value came out at 18.2%. `O=C(NCCc1ccc(F)cc1)c1cccc(NC(=O)c2ccccc2)c1`: the “hERG current change (%, negative = inhibition) at 1uM” value is 9.16%.

Turning to `CNC[C@H](Cc1ccccc1)NC[C@@H](Cc1cccc2ccccc12)NCCc1ccc(C)cc1`, the “hERG current change (%, negative = inhibition) at 1uM” value came out at 6.93%. The figure for `O=C(COC(=O)Cc1c(F)cccc1Cl)Nc1nnc(-c2ccccc2)o1` is 3.11%. To `COc1cccc(CNC(=O)c2cccc(S(=O)(=O)N3CCN(C)CC3)c2)c1` belongs 0.692%; to `C=C(C)Cn1c(N2CCN(c3ccc(OC)cc3)CC2)nc2c1c(=O)n(C)c(=O)n2C`, 10.4%. `COc1c(OC2OC(C(=O)O)C(O)C(O)C2O)cc(O)c2c(=O)cc(-c3ccccc3)oc12` (centres unmarked): the “hERG current change (%, negative = inhibition) at 1uM” value stood at 15.3%. The figure for `Cl.NS(=O)(=O)c1ccc(CCNC/C=C/c2ccccc2)cc1` is -7.95%. The figure for `O=S1(=O)N=C2CCCCCN2C(c2ccccc2)N1` (centres unmarked) is 1.16%; for `CCOC(=O)c1cccc(NC(=O)c2ccc(NC(=O)c3ccco3)cc2)c1` it is 14.9%.
